In all, about 190,000 compounds went through this assay and about 520 (0.27%) were called active. This list was built around the results that the source calls inconclusive (neither active nor inactive); the mix of calls is not that of the screen.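 Rule for the calls: active = GTP binding activity at least 20 points away from the 100% control level, either lower or higher; inconclusive = compound flagged as likely green fluorescent, judged across all proteins; inactive = the rest.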
biological target: Ras-related C3 botulinum toxin substrate 1 (Homo sapiens) (UniProt P63000); experiment: wildtype Rac1 GTP binding modulators, primary screen, biochemical, GST-Rac1 beads, flow cytometry, multiplex (AID 757); settings: fluorescent GTP binding, at 10 µM, actives lie on both sides, 0 = cold GTP competed, 100 = untreated

SMILES	GTP binding activity (% of control)
CC(C(=O)NC1CCCC1)N(C(=O)c1snc(C(N)=O)c1N)c1ccc2c(c1)OCCO2 (stereo not drawn)	inconclusive: 107%
C#Cc1ccc([C@@H]2C=C(C(=O)Nc3ccccc3)O[C@H](OCC)[C@H]2CCCO)cc1	inconclusive: 94%
Cc1ccc(Cn2nnnc2CN2CCC(NC(=O)C(C)(C)C)CC2)cc1	inconclusive: 100%
COCCNC(=O)Cn1c(=O)n(CCCCCC(=O)NCc2ccc3c(c2)OCO3)c(=O)c2sccc21	inconclusive: 93%
CC(=O)c1ccc(NC(=S)Nc2ccc3cn[nH]c3c2)cc1	inconclusive: 94%
CCOc1ccccc1NC(=O)C(=O)N/N=C/c1ccc([N+](=O)[O-])cc1	inconclusive: 97%
O=C(N/N=C/c1ccccc1Br)C1CC1	inactive: 95%
CCOC(=O)c1c(NC(=O)c2c(C)noc2C)sc2c1CCCCC2	inconclusive: 108%
CCOC(=O)c1cccc(NC(=O)CSc2nnnn2C)c1	inconclusive: 108%
COCC(=O)Nc1ccc(Br)cc1	inconclusive: 105%
CC(=O)c1cnc(Nc2nc(C)c3ccccc3n2)nc1C	inconclusive: 108%
COc1cc(-c2nc3c(c(C)nn3-c3ccccc3)c3cc(OC)c(OC)cc23)ccc1O	inconclusive: 94%
Cc1nn2c(-c3ccccc3)nnc2c2ccccc12	inconclusive: 93%
Cc1cccc(NC(=O)CSc2nc(NS(=O)(=O)c3ccccc3)cc(=O)[nH]2)c1	inactive: 95%
CCN(CC)CCC(=O)c1ccc(F)cc1	inconclusive: 82%
S=C(NCCc1ccccc1)NC1CC1	active: 123% [activator]
O=C(NC(=S)Nc1nc2ccc(F)cc2s1)c1ccco1	inconclusive: 94%
COc1cc(SC)ccc1C(=O)Nc1ccccc1C#N	inconclusive: 106%
Oc1ccc(C2N=C(c3ccccc3)NC(c3ccccc3)=N2)cc1	inconclusive: 105%
CCN(c1ccc(N=Cc2c(O)n(Cc3ccc(OC)cc3)c(=O)c3ccccc23)cc1)C(C)C	inconclusive: 306%
CCN1CCN(C(=O)CSc2nc(N)cc(N)n2)CC1	inconclusive: 86%
COc1ccccc1Cn1c(=S)[nH]c2cc(C(=O)NCc3cccnc3)ccc2c1=O	inconclusive: 98%
O=S(=O)(Nc1cccc(-c2cn3cccnc3n2)c1)c1ccccc1	active: 70%
COc1ccc(-c2cc(=O)oc3c(C)c(OC(=O)c4cccs4)ccc23)cc1	inconclusive: 109%

SMILES	GTP binding activity (% of control)
CC(=O)N1CCN(CC(=O)Nc2c(Cl)ccc(C)c2Cl)CC1	inactive: 96%
COc1cccc(CN2CCCC(CNC(=O)c3ccc(F)cc3)C2)c1OC (stereo not drawn)	inactive: 102%
COc1ccc(N)c2c1C(=O)c1ccccc1C2=O	inconclusive: 84%
Cn1cnnc1SCC(=O)NCCc1ccc(Cl)cc1Cl	inactive: 95%
O=C(COc1cccc(Cl)c1)Nc1ccc2c(c1)CCC2	inactive: 99%
COc1ccc(OC)c(NC(=O)CN(Cc2ccc(Cl)cc2)S(C)(=O)=O)c1	inactive: 97%
Cc1ccc(/C=C/C(=O)Nc2cc(S(N)(=O)=O)ccc2O)cc1	inconclusive: 92%
Cc1cc(NS(=O)(=O)c2ccc(NC(=O)c3cc4c(=O)n5ccccc5nc4s3)cc2)nc(C)n1	inactive: 83%
Cc1ccc(Sc2ncccc2C(=O)O)c(C)c1	active: 135% [activator]
COc1ccc(-c2cc(C(F)(F)F)nc(NCc3ccco3)n2)cc1OC	inconclusive: 108%
COc1ccc2ccccc2c1C(=O)/C=C\c1ccoc1	inconclusive: 102%
COCCN(CCOC)S(=O)(=O)c1ccc(C(=O)Nc2nc(-c3ccncc3)cs2)cc1	inconclusive: 95%
Cc1nonc1C(=O)N/N=C/c1ccc(O)cc1O	inactive: 100%
CCCOC(=O)c1ccc(Cl)c(NC(=O)c2ccc(-c3ccccc3)cc2)c1	inconclusive: 104%
Cc1n[nH]c(C)c1S(=O)(=O)N1CCC(C(=O)O)CC1	inconclusive: 104%
COc1ccc(N2CCN(CCNC(=O)c3ccc4c(c3)[nH]c(=S)n3c5ccccc5nc43)CC2)cc1	inactive: 94%
CCN(CC)S(=O)(=O)c1ccc(NC(=O)Cc2cccs2)cc1	inconclusive: 96%
Cc1cccc(NS(=O)(=O)c2cccc3nonc23)c1	inconclusive: 95%
COC(=O)c1cc2c(ccn2-c2ccc(F)cc2)n1CC(=O)OC(C)C	inconclusive: 100%
COc1ccc(NC(=O)c2c(N)no[n+]2[O-])cc1	inconclusive: 90%
Cc1cc(S(=O)(=O)N(Cc2ccc(F)cc2)CC2CCCO2)ccc1-n1cnnn1 (stereo not drawn)	inconclusive: 103%
COCCN(C(=S)Nc1cc(C)ccc1C)C(C)c1cccnc1 (stereo not drawn)	inconclusive: 375%
O=S1(=O)N=C(N=Nc2c(O)[nH]c3ccccc23)c2ccccc21	active: 77%
CCN(CC)c1ccc(-c2nc3cnccn3c2NC2CCCC2)cc1	inactive: 101%

SMILES	GTP binding activity (% of control)
CCC(=O)NCc1c(C)c(C)n(Cc2ccccc2)c1-n1cccc1	inactive: 103%
OC1(c2cccc(C(F)(F)F)c2)CCN(c2ncnc3c2[nH]c2ccc(F)cc23)CC1	inconclusive: 91%
CCCC(=O)N(Cc1cc2ccccc2[nH]c1=O)c1ccccc1OC	inconclusive: 106%
CCN(CC)S(=O)(=O)c1cc(NC(=O)CSc2nc3c(cc2C#N)C(=O)CC(C)(C)C3)ccc1C	inactive: 98%
O=C(CSc1nnc(SCc2cccc3ccccc23)s1)c1ccc2c(c1)OCO2	inconclusive: 92%
CC(C)OC(=O)/C(C#N)=C/c1c[nH]c2ccccc12	inactive: 101%
CCOC(=O)NC(Nc1ncccn1)(C(F)(F)F)C(F)(F)F	inconclusive: 94%
CCC(CC)C(=O)c1c[nH]c(C(=O)NCc2cccnc2)c1	inconclusive: 95%
CC(=O)Nc1ccc(N2CCOCC2)c([N+](=O)[O-])c1	inactive: 101%
Cc1ccc(CNC(=O)Cc2csc(Nc3nc(=S)[nH]c4ccccc34)n2)cc1	inconclusive: 97%
Cc1cccc(C(=O)c2ccccc2C(=O)O)c1O	inconclusive: 110%
CCO[C@H]1OC(C(=O)N2CCN(Cc3ccc4c(c3)OCO4)CC2)=C[C@@H](C)[C@@H]1CCCO	inactive: 97%
O=C(NCCN1CCN(Cc2ccccc2)CC1)C1c2ccccc2C(=O)N2CCc3ccccc3C12 (stereo not drawn)	inconclusive: 105%
CCOc1ccccc1C(=O)Nc1cccc(-c2nnc(-c3ccccc3)o2)c1	inconclusive: 86%
CC(C)CC(c1nnnn1C(C)C)N1CCN(c2cccc(Cl)c2)CC1 (stereo not drawn)	inconclusive: 105%
CCc1ccc(CNC(=O)c2cc3c(C)nc4ccccc4c3o2)cc1	inconclusive: 90%
CCC(=O)c1ccc(OCC(O)CN(CCc2ccccc2)Cc2ccccc2)cc1 (stereo not drawn)	inconclusive: 102%
Cc1ccc(C(=O)NC(=S)Nc2ccc3[nH]c(=O)[nH]c3c2)c(C)c1	inconclusive: 99%
Cc1cccc(NCC(O)Cn2cnc3c2c(=O)n(C)c(=O)n3C)c1 (stereo not drawn)	inactive: 107%
O=C(CCN1CCOCC1)Nc1ccccc1	inconclusive: 103%
O=C(CCn1ccnc1)Nc1ccc2ccccc2c1	inactive: 101%
Cc1nn(CC(=O)c2ccc(Cl)s2)c(C)c1[N+](=O)[O-]	inactive: 96%
C#CCN(C(=O)CC1C(=O)NCCN1C/C=C/c1ccccc1)C1CCCCC1 (stereo not drawn)	inactive: 98%
CC(C)NC(=S)N=Nc1c(O)[nH]c2ccc([N+](=O)[O-])cc12	active: 62%

SMILES	GTP binding activity (% of control)
CCNC(=O)C1CCCN1S(=O)(=O)c1ccc(OC)cc1 (stereo not drawn)	inconclusive: 90%
c1ccc2[nH]c3cc4ncnc4cc3nc2c1	active: 79%
O=C(CNCC1CCCO1)Nc1ccc(N2CCCCCC2)cc1 (stereo not drawn)	inconclusive: 104%
COCCN=C1Sc2nc3cc4c(cc3cc2CN1CC1CCCO1)OCO4 (stereo not drawn)	inactive: 101%
O=C(CN1CCN(c2ccccn2)CC1)Nc1ccc(OCc2ccccc2)cc1	inconclusive: 106%
Cc1ccc(NC(=O)c2ccccc2OCC(=O)Nc2cccc(Cl)c2C)nc1	inactive: 95%
CCN(CC)c1ccc(/C=c2\sc3nnc(-c4ccccc4Cl)n3c2=O)cc1	inconclusive: 140%
O=c1c2c(nc3cc(-c4ccc(Br)cc4)[nH]n13)CCCC2	inconclusive: 86%
CCCn1c(SCCc2ccccc2)nc2c1c(=O)[nH]c(=O)n2C	inconclusive: 106%
Cc1oc(-c2cccs2)nc1CN1CCN(Cc2ccc(F)c(F)c2)C(CCO)C1 (stereo not drawn)	inactive: 102%
Cc1ccc2c(c1)cc(CN(Cc1cccnc1)C(=O)c1ccccc1)c1nnnn12	inconclusive: 98%
CCOC(=O)c1c(C)n(C)c2ccc(OC)c([N+](=O)[O-])c12	inactive: 100%
CS(=O)(=O)c1nc(-c2ccc(F)cc2)cc(C(F)(F)F)n1	inconclusive: 96%
CCN(C(=O)COC(=O)/C=C/c1ccccc1)C1CCCCC1	inactive: 93%
O=C(CSc1cccc[n+]1[O-])NC(=O)c1ccc(OC(F)F)cc1	inactive: 100%
COC(=O)c1ccccc1-c1ccc(C(c2c(C)[nH][nH]c2=O)c2c(C)[nH][nH]c2=O)o1	inconclusive: 89%
O=C1NCCN1C(=O)c1cccc(Cl)c1	inconclusive: 105%
COc1cc(/C=N/NC(=O)CCn2nnc3ccccc32)ccc1O	inactive: 101%
Cc1cc(C(=O)N/N=C/c2ccco2)n[nH]1	inconclusive: 94%
CC(C)(C)n1nc2c(c1NC(=O)Cc1cccc3ccccc13)CS(=O)(=O)C2	inconclusive: 92%
CCOc1ncccc1C(=O)OCC(=O)NCCc1ccc(OC)cc1	inconclusive: 108%

From PubChem BioAssay AID757 (NMMLSC, 2007)
